Laboratory results as given in the supplement of paper PMC4967469.
A lower IC50 marks a more sensitive line; a limit (>, <) means that the fit lies beyond the doses tested. For AUC the same curve is integrated over the 256-fold range of doses and scaled to a fraction; values near 1 show little effect. For part of these data: An inferred top dose was derived from the fitted curves, not read from the paper. For part of these data: Where an entry number is given, a second screen of the drug exists; the two often differ.

Legend:
Assay in all cases: Viability of human cancer cell lines after 72 h of drug (GDSC screen)
(5Z)-7-Oxozeaenol = compound: COc1cc(O)c2c(c1)/C=C/C[C@H](O)[C@H](O)C(=O)/C=C\C[C@H](C)OC2=O [(5Z)-7-Oxozeaenol]; settings: top dose 10 µM; top dose inferred
Procedure: (§1)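 Human cancer cell lines in 384-well plates, medium with 10% serum, drug for 72 h over a 256-fold dose range (nine 2-fold or five 4-fold steps up to the top dose). Adherent lines were fixed and stained with the nucleic acid dye Syto60, suspension lines read with resazurin; signal relative to control wells, capped at 0 and 100%. One two-parameter sigmoid per drug and line, fitted in a mixed model over all curves with the slope shared within a line.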

ABT-888 = compound: C[C@]1(c2nc3c(C(N)=O)cccc3[nH]2)CCCN1 [ABT-888]; settings: top dose 5 µM; top dose inferred
Procedure: as §1

Zibotentan = compound: COc1nc(C)cnc1NS(=O)(=O)c1cccnc1-c1ccc(-c2nnco2)cc1 [Zibotentan]; settings: top dose 20 µM; top dose inferred
Procedure: as §1

Thapsigargin = compound: C/C=C(/C)C(=O)O[C@H]1C(C)=C2[C@H]([C@@H]1OC(=O)CCCCCCC)[C@@](C)(OC(C)=O)C[C@H](OC(=O)CCC)[C@@]1(O)[C@H]2OC(=O)[C@@]1(C)O [Thapsigargin]; settings: top dose 0.512 µM; top dose inferred
Procedure: as §1

GSK269962A = compound: CCn1c(-c2nonc2N)nc2cnc(Oc3cccc(NC(=O)c4ccc(OCCN5CCOCC5)cc4)c3)cc21 [GSK269962A]; settings: top dose inferred
Procedure: as §1

KU-55933 = compound: O=c1cc(-c2cccc3c2Sc2ccccc2S3)oc(N2CCOCC2)c1 [KU-55933]; settings: top dose 10 µM
Procedure: as §1

QL-X-138 = compound: C=CC(=O)Nc1cc(-n2c(=O)ccc3cnc4ccc(-c5cn[nH]c5)cc4c32)ccc1C [QL-X-138]; settings: top dose 10.24 µM; top dose inferred
Procedure: as §1

MPS-1-IN-1 = compound: COc1cc(N2CCC(O)CC2)ccc1Nc1cc(Nc2ccccc2S(=O)(=O)C(C)C)c2cc[nH]c2n1 [MPS-1-IN-1]; settings: top dose 20 µM; top dose inferred
Procedure: as §1

CP466722 = compound: COc1cc2ncnc(-n3nc(-c4ccccn4)nc3N)c2cc1OC [CP466722]; settings: top dose 16 µM; top dose inferred
Procedure: as §1

ABT-869 = compound: Cc1ccc(F)c(NC(=O)Nc2ccc(-c3cccc4[nH]nc(N)c34)cc2)c1 [ABT-869]; settings: top dose 1.024 µM; top dose inferred
Procedure: as §1

CMK = compound: Cc1ccc(-c2c(C(=O)CCl)n(CCCO)c3ncnc(N)c23)cc1 [CMK]; settings: top dose 4 µM; top dose inferred
Procedure: as §1

CHIR-99021 = compound: Cc1cnc(-c2cnc(NCCNc3ccc(C#N)cn3)nc2-c2ccc(Cl)cc2Cl)[nH]1 [CHIR-99021]
Procedure: as §1

Cytarabine = compound: Nc1ccn([C@@H]2O[C@H](CO)[C@@H](O)[C@@H]2O)c(=O)n1 [Cytarabine]; settings: top dose 2 µM
Procedure: as §1

[1] = top dose 2.5 µM, screen: GDSC drug entry 127
[2] = top dose 5 µM, screen: GDSC drug entry 1192
[3] = top dose 2.56 µM, screen: GDSC drug entry 154
[4] = top dose 10 µM, screen: GDSC drug entry 1241, top dose inferred

Row | Cell Line | AUC ((5Z)-7-Oxozeaenol) | IC50 ((5Z)-7-Oxozeaenol) [nM] | AUC (ABT-888) | IC50 (ABT-888) [nM] | AUC (Zibotentan) | IC50 (Zibotentan) [nM] | AUC (Thapsigargin) | IC50 (Thapsigargin) [nM] | AUC (GSK269962A; [1]) | IC50 (GSK269962A; [1]) [nM] | AUC (GSK269962A; [2]) | IC50 (GSK269962A; [2]) [nM] | AUC (KU-55933) | IC50 (KU-55933) [nM] | AUC (QL-X-138) | IC50 (QL-X-138) [nM] | AUC (MPS-1-IN-1) | IC50 (MPS-1-IN-1) [nM] | AUC (CP466722) | IC50 (CP466722) [nM] | AUC (ABT-869) | IC50 (ABT-869) [nM] | AUC (CMK) | IC50 (CMK) [nM] | AUC (CHIR-99021; [3]) | IC50 (CHIR-99021; [3]) [nM] | AUC (CHIR-99021; [4]) | IC50 (CHIR-99021; [4]) [nM] | AUC (Cytarabine) | IC50 (Cytarabine) [nM]
1 | MDST8 (large intestine, adherent) | 0.128 | 41.9 | 0.972 | > 5000 | 0.975 | > 20000 | 0.856 | 408 | 0.98 | > 2500 | 0.943 | > 5000 | 0.976 | > 10000 | 0.855 | 8030 | 0.83 | 12400 | 0.972 | > 16000 | 0.986 | > 1020 | 0.949 | > 4000 | 0.986 | > 2560 | 0.949 | > 10000 | 0.898 | > 2000
2 | ME-1 (acute myeloid leukaemia, suspension) | 0.729 | 2950 | 0.984 | > 5000 | 0.978 | > 20000 | 0.832 | 360 | 0.989 | > 2500 | 0.983 | > 5000 | 0.976 | > 10000 | 0.898 | > 10200 | 0.871 | > 20000 | 0.885 | > 16000 | 0.986 | > 1020 | 0.969 | > 4000 | 0.989 | > 2560 | 0.987 | > 10000 | 0.955 | > 2000
3 | MEG-01 (chronic myeloid leukaemia, suspension) | 0.553 | 863 | 0.985 | > 5000 | 0.928 | > 20000 | 0.314 | 10 | 0.986 | > 2500 | 0.902 | > 5000 | 0.971 | > 10000 | 0.849 | 7010 | 0.927 | > 20000 | 0.569 | 1530 | 0.98 | > 1020 | 0.936 | > 4000 | 0.945 | > 2560 | 0.874 | 8720 | 0.72 | 503
4 | MFH-ino (soft tissue, adherent) | 0.571 | 1010 | 0.975 | > 5000 | 0.983 | > 20000 | 0.233 | 4.59 | 0.636 | 398 | 0.829 | 3880 | 0.983 | > 10000 | 0.792 | 5540 | 0.932 | > 20000 | 0.91 | > 16000 | 0.983 | > 1020 | 0.913 | > 4000 | 0.968 | > 2560 | 0.98 | > 10000 | 0.35 | 44.5
5 | MFM-223 (breast, adherent) | 0.686 | 2060 | 0.989 | > 5000 | 0.988 | > 20000 | 0.959 | > 512 | 0.985 | > 2500 | 0.719 | 1290 | 0.979 | > 10000 | 0.794 | 4640 | 0.968 | > 20000 | 0.862 | 13500 | 0.986 | > 1020 | 0.962 | > 4000 | 0.986 | > 2560 | 0.978 | > 10000 | 0.788 | 867
6 | MHH-PREB-1 (B-cell leukaemia, suspension) | 0.647 | 1520 | 0.987 | > 5000 | 0.988 | > 20000 | 0.36 | 13.8 | 0.941 | > 2500 | 0.769 | 1690 | 0.88 | 8520 | 0.503 | 651 | 0.81 | 9220 | 0.779 | 5820 | 0.989 | > 1020 | 0.792 | 1600 | 0.985 | > 2560 | 0.915 | > 10000 | 0.53 | 150
7 | MLMA (hairy cell leukaemia, semi-adherent) | 0.483 | 562 | 0.966 | > 5000 | 0.973 | > 20000 | 0.558 | 46.1 | 0.961 | > 2500 | 0.951 | > 5000 | 0.871 | 9580 | 0.448 | 462 | 0.879 | > 20000 | 0.686 | 3340 | 0.986 | > 1020 | 0.839 | 2750 | 0.985 | > 2560 | 0.959 | > 10000 | 0.399 | 65.8
8 | MMAC-SF (melanoma, adherent) | 0.124 | < 39.1 | 0.978 | > 5000 | 0.987 | > 20000 | 0.407 | 17.6 | 0.967 | > 2500 | 0.942 | > 5000 | 0.942 | > 10000 | 0.788 | 4690 | 0.981 | > 20000 | 0.878 | > 16000 | 0.987 | > 1020 | 0.822 | 2470 | 0.985 | > 2560 | 0.938 | > 10000 | 0.935 | > 2000
